# Measured values taken from the supplement of paper PMC3334620.
# Whole data set: some 33,000 sequences, median “E-score (-0.5 to 0.5)” near -0.035, cut for the highest 2% near 0.35. The list shows a part of the results.
# Target: T1, Pdr3 (UniProt P33200)
# T1 sequence: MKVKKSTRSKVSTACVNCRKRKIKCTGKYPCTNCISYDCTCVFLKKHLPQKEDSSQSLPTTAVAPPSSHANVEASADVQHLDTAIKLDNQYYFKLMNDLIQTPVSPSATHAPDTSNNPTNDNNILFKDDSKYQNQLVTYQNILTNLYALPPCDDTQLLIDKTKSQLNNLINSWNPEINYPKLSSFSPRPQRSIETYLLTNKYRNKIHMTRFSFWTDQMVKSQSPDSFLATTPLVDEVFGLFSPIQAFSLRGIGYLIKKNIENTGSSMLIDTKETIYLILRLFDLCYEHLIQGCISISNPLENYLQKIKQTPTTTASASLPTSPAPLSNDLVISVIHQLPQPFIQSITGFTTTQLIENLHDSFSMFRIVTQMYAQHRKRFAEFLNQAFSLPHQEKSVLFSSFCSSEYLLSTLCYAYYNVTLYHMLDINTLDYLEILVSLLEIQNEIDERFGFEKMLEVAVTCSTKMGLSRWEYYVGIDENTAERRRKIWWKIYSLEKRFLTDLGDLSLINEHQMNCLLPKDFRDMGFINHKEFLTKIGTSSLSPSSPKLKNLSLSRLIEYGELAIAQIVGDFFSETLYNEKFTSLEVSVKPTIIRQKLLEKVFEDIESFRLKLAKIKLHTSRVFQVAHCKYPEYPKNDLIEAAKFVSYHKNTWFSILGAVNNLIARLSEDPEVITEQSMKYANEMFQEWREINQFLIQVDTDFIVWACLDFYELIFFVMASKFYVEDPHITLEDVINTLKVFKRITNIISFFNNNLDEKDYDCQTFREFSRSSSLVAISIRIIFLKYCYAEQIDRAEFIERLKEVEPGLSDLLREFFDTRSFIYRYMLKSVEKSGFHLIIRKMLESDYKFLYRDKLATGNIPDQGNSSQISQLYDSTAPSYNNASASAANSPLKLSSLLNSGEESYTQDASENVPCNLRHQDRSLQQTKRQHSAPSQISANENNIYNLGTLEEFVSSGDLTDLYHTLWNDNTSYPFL
# Experiment: PBM E-score (8-mer binding enrichment) (E-score (-0.5 to 0.5)); higher = stronger / more preferred TF binding; most listed sequences are background and not binding sites
# Conditions: protein concentration: 200 nM; construct: GST-full length
# Description: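 Universal 'all 10-mer' protein binding microarrays (Agilent AMADID 015681) probed with GST-tagged S. cerevisiae TFs (full-length or DBD) made by in vitro transcription/translation (PURExpress), about 100-200 nM. Bound TF was detected with fluorescent anti-GST. Each ungapped 8-mer (which stands for itself and its reverse complement) is scored by the PBM enrichment score (E-score), a modified Wilcoxon-Mann-Whitney statistic from -0.5 to +0.5, computed with the Universal PBM Analysis Suite. Scale: above 0.35 generally sequence-specific binding.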
row,Sequence,PBM E-score
1,CCTTAAAC,-0.161
2,CGGACCGA,0.352
3,AGCGGCTC,0.082
4,AATCTGGA,-0.0162
5,GGCCATAA,0.0789
6,CCGGATAC,0.351
7,AATACATC,0.182
8,CGAGAGAG,0.0773
9,GGCGGCCC,-0.00494
10,AACATTCA,0.0836
11,GTCGTTGA,-0.129
12,CCATTAGG,-0.257
13,CGAACGAG,-0.0975
14,AATACGAC,-0.173
15,AGGATCAA,0.103
16,ATAATCTG,-0.182
17,AAATCCCT,-0.22
18,ACCCCACC,0.272
19,CAAGATCA,-0.0417
20,CGACTCAG,-0.127
21,ACTTACTA,-0.258
22,CTTTCTAA,-0.183
23,ATACCCCA,0.0496
24,AGGGGCCC,0.125
25,GCACAAGC,0.00066

row,Sequence,PBM E-score
1,CTAATTAG,0.0718
2,AGAGCTAC,-0.128
3,ATTCAGAA,-0.231
4,CGGCACTC,0.112
5,CCGAAGGA,0.105
6,CACGATCC,0.097
7,GACTTTCA,-0.044
8,GACAACCC,0.0502
9,AGCGGATG,0.191
10,ATACACGG,0.0919
11,TGATAGCA,-0.0286
12,CTGTCCGC,0.235
13,AAATGATA,0.0731
14,ATGTAAAT,-0.122
15,TCCGTTAA,0.348
16,CGGTTCCC,0.153
17,CTCCAGAC,-0.0921
18,GGGACAAA,0.0643
19,TAGGTTAA,-0.0553
20,CAACCGCC,0.0754
21,CTTATGTC,0.0774
22,CTATAGCC,-0.241
23,CGGTGCAC,-0.0225
24,ACTATTCA,-0.0803
25,AAGCGCTT,0.21

row,Sequence,PBM E-score
1,CCGTATAC,0.0588
2,CCGAGACA,0.185
3,ATCCGGTG,0.35
4,CATGGCCC,0.102
5,CCGTGTCC,0.356
6,ACGTATCA,-0.068
7,CCAGGTAA,-0.104
8,AACTAATA,0.215
9,CAGCGCCG,0.256
10,CCCCTTCG,-0.203
11,GCACATAA,-0.2
12,CCAGGTAC,-0.233
13,AACCTGCC,-0.146
14,CGGAGAAA,0.308
15,CAGCAGAC,-0.02
16,TATGTGAA,-0.273
17,GCCTAACC,-0.131
18,CAAAGTCC,-0.0636
19,TAGAGTAA,-0.0312
20,AGATCAAG,-0.0561
21,AAGGTTCG,-0.0878
22,GTTGGCAA,-0.0457
23,GAAGTAGC,0.0381
24,AACCACAT,-0.104
25,GATGGGGA,0.117

row,Sequence,PBM E-score
1,GTGGCCAA,-0.0495
2,GGCCTTTA,-0.123
3,ACCTGCGT,-0.00471
4,CGCATACG,0.1
5,CCTTAAGG,-0.0211
6,ATCAGTCC,-0.145
7,GGGTTGAA,-0.0149
8,CGCTAGGA,-0.0989
9,CGAGTAGA,-0.0392
10,ACAAAATC,0.0149
11,ACTTGATG,-0.02
12,GGGAATCA,0.0382
13,CAAAGCCG,0.00836
14,TAAAGGCA,-0.0458
15,ACAAAAGT,-0.0787
16,AAGGGACG,-0.0816
17,CTCGTCCC,0.0112
18,CTCCAGCC,-0.0126
19,ATTATTTG,-0.0361
20,ACCTTTCG,-0.037
21,CTTCCCAA,-0.0991
22,GATATAAC,0.00998
23,GTGGGGGA,-0.297
24,ATCACCCG,0.358
25,CGATTGGC,0.0251

row,Sequence,PBM E-score
1,AAGTAAGC,-0.122
2,CCGAGGTC,0.331
3,TCTCCTCA,-0.171
4,GGAGTCTA,-0.145
5,ATCCTTAA,-0.267
6,GAGTCCGA,0.236
7,GCCTAAGA,-0.167
8,GTGACTAA,-0.0412
9,ACCCACGA,-0.0144
10,GAGGCTGA,-0.305
11,ATATCTCA,0.0784
12,GGCGAGTA,0.111
13,TACGAGTA,-0.0197
14,AATGGATG,-0.131
15,ACAGGTAA,-0.15
16,ACACAACA,-0.0742
17,AATGTTTC,0.0286
18,TCCCGAAA,0.206
19,AATCGCCA,-0.135
20,AGTGGTAT,-0.0212
21,TCAAGGAA,-0.0766
22,AAGAGTGC,-0.0877
23,ACAAGTAT,0.00509
24,AATTTGGT,0.113
25,ATGCTCCG,0.311

row,Sequence,PBM E-score
1,ACCACCCA,-0.0389
2,AGACTTAC,-0.264
3,GTTCTGGA,-0.104
4,TCACTTAA,-0.108
5,ACCATTAG,-0.15
6,GTAATACA,-0.115
7,ATATTGAC,-0.0229
8,AAGCCCCT,-0.0507
9,GTTGTCAA,-0.144
10,GGAATACC,0.27
11,AGAAAACC,-0.101
12,GCTATTAA,-0.0584
13,CCCGGTCA,0.216
14,GCACATGA,-0.133
15,CAAGCGGC,0.171
16,GACGCGGC,0.0937
17,ACTTGACA,-0.191
18,CTCTTTAC,-0.141
19,CGACGTTA,0.134
20,ACTACGGC,0.0992
21,GAGAGACC,-0.13
22,ACGTCCGC,0.216
23,ACTCGAAA,-0.139
24,TACATCTA,-0.0537
25,ACAACCGT,-0.246

row,Sequence,PBM E-score
1,ACATGGCC,0.00729
2,ACAACCTA,-0.095
3,TTGACCAA,-0.0852
4,ACGAGTCG,-0.192
5,CGAAGGAG,-0.00322
6,CGTAACAA,-0.11
7,ATAAACTA,-0.063
8,ATTCTGTC,0.0364
9,ACATAGCT,-0.165
10,GTCTCTGA,-0.141
11,CGCTTTAA,-0.117
12,AATGTCAC,-0.0552
13,TTATAGAA,-0.191
14,CGCCACAG,-0.103
15,AGGCCCAA,-0.0932
16,CCGAAATA,0.295
17,CCTGTTTC,-0.137
18,ATTGAAAG,-0.0832
19,AGCAGTCA,-0.175
20,TGTAGGAA,-0.203
21,ATGTCCTA,-0.116
22,ACATCCCT,0.0723
23,AAATACCG,0.111
24,CACGTCCC,0.00264
25,AGGTTGAA,0.0111

row,Sequence,PBM E-score
1,AAGAGCTG,-0.182
2,TATCGGGA,0.228
3,AGTTAGTG,-0.156
4,AAATAGAT,0.038
5,TGCCAACA,-0.108
6,AAACCGTG,-0.00106
7,ACTTTTGG,0.0191
8,TATCCATA,0.0421
9,CCTGCAGC,-0.0971
10,CCGTTACA,0.147
11,GCCGCATA,0.237
12,ACTCAACG,-0.107
13,ACTTAAGG,-0.16
14,ACGGCGCT,0.0913
15,ATAGGTGG,-0.195
16,ATTGACCC,-0.0163
17,AACAAGGG,-0.0813
18,ATATTTCA,-0.0857
19,AAGATCTG,-0.023
20,CTCCCAAA,-0.0924
21,CGCATCAA,0.136
22,AAAATGGT,0.0548
23,AAACAAAC,-0.301
24,GGCTCATA,-0.0875
25,CATTCCGA,0.421

row,Sequence,PBM E-score
1,CTGATAGC,-0.114
2,GGGGCCCA,0.162
3,CAAATCAG,-0.207
4,TACGACGA,-0.0989
5,ACCCCAAA,0.195
6,CCTAAATA,-0.155
7,AGCACCTC,0.0515
8,ATGAATGA,0.0256
9,GGAAAGCC,0.266
10,CCCATGAG,-0.0814
11,GTCCCTTA,0.0278
12,ATTGGCCA,0.0225
13,TGGTGCAA,-0.159
14,GGAGTATA,0.0665
15,GACCTCCA,0.0566
16,TCCGGCGA,0.356
17,CCGGACAA,0.329
18,AACGCGGC,0.123
19,CGGTCTTC,0.123
